# Screen size: about 310,000 compounds; about 14,000 (4.5%) showed an effect of 50% or more. The effect is printed as a negative number. This is one part of the list.
# Target: human ether-à-go-go-related gene (hERG) potassium channel (human, UniProt Q12809)
# Assay: primary screen, population patch clamp on CHO cells stably expressing hERG
# 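Further: peak tail current of the secondary pulse compared with the same well before compound.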
# Chain of human ether-à-go-go-related gene (hERG) potassium channel (Q12809 whole entry, looked up): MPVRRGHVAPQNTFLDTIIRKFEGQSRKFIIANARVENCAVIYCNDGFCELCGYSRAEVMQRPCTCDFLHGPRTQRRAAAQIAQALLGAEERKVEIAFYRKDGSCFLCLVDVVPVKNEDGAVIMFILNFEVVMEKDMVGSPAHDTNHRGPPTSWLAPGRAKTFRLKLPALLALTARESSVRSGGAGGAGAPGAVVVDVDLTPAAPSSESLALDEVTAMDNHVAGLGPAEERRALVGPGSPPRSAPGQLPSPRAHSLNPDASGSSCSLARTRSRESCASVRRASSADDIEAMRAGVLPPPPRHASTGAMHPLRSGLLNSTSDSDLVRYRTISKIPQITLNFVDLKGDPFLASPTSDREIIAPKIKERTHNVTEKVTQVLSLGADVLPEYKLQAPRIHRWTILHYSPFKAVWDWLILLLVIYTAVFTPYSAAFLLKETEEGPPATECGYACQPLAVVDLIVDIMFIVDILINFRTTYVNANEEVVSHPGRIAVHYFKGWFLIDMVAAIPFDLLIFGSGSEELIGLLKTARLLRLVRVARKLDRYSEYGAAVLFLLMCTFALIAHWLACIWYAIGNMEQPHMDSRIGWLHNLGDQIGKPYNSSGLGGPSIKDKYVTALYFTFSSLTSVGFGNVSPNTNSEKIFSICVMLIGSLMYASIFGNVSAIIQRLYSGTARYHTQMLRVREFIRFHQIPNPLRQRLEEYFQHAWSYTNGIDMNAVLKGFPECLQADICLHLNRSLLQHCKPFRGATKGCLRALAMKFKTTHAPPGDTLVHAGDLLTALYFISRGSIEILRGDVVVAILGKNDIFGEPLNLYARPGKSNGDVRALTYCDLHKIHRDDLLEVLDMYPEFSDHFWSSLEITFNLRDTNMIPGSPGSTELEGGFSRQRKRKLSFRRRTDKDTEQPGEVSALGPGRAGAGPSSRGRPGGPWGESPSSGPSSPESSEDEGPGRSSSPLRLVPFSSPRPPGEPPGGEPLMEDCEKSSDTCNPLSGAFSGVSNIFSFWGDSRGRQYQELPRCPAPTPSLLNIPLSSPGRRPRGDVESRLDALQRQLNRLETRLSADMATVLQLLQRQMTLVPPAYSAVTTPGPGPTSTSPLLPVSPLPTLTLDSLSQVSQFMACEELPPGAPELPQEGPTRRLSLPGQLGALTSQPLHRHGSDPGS
row,Structure (SMILES),"hERG current change (%, negative = inhibition) at 10uM"
1,COc1ccc(Cl)cc1Nc1nc(-c2sc(NC(=O)CC(C)C)nc2C)cs1,14.6%
2,CC(C)(C)c1ccc(OCC(=O)N/N=C/C2CC=CCC2)cc1 (stereo not drawn),-11.4%
3,O=C(Nc1ccc2c(c1)OCO2)C1CCN(C(=O)c2ccc(Br)cc2)CC1,-70.5%
4,Cc1ccc2cc3c(NC(=O)C4CCCO4)nn(CC(C)C)c3nc2c1 (stereo not drawn),11.7%
5,O=C(NCCCNC(=O)c1cnccn1)c1cccc(Cl)c1,-5.72%
6,CN(C)S(=O)(=O)N1CCC(Oc2cccc(C(=O)NC3CCCCC3)c2)CC1,-28.2%
7,O=C(CC(Cc1ccccc1)C(=O)O)Nc1ccc(Cl)c(Cl)c1 (stereo not drawn),27.9%
8,CCc1cccc(C)c1NC(=O)c1ccoc1C,0.315%
9,Cc1cc(C(F)(F)F)nn1CC(=O)NNC(=S)NCC(C)C,-1.35%
10,COC(=O)c1cc(NC(=O)CC2NCCNC2=O)cc(C(=O)OC)c1 (stereo not drawn),5.72%
11,COc1ccc(Cl)cc1S(=O)(=O)N1CCC(O)(c2ccc(Cl)cc2)CC1,28.9%
12,CC(C)OCC(O)CN1CCN(C(c2ccccc2)c2ccccc2)CC1.Cl (stereo not drawn),-58.1%
13,CC(C)c1ccc(NC2CCCN(C(=O)c3ccsc3)C2)cc1 (stereo not drawn),-0.745%
14,CC(=O)c1c(C)nn(CC(O)Cn2c3c(c4cc(C)ccc42)CCCC3=O)c1C (stereo not drawn),-18.2%
15,COc1cc(-c2noc(C)c2/C=C/c2cccc([N+](=O)[O-])c2)cc(OC)c1OC,-2.59%
16,COc1cc(/C=N/n2c(-c3n[nH]c4c3CCC4)n[nH]c2=S)cc(OC)c1O,24.2%
17,O=C(CCc1nnc2ccc(NCc3ccco3)nn12)Nc1ccc(F)cc1,-9.82%
18,Cc1ccc(C)c(OCC(=O)NCCNC(=O)COc2cc(C)ccc2C)c1,7.21%
19,O=C(c1ccc(COc2c(F)c(F)c(F)c(F)c2F)o1)N1CCN(Cc2ccc3c(c2)OCO3)CC1,-35.8%
20,COc1cccc(N2C(=O)Nc3ccc(Br)cc3C2(O)C(=O)NCCN(C)C)c1 (stereo not drawn),8.56%
21,COc1cc(NC(=O)c2ccc(-c3ccc(Br)cc3)o2)ccc1NC(=O)C(C)C,-26.1%

row,Structure (SMILES),"hERG current change (%, negative = inhibition) at 10uM"
1,CCc1ccc(OC(C)C(=O)N(Cc2ccccc2)C2CCS(=O)(=O)C2)cc1 (stereo not drawn),-13.1%
2,CC(C)n1c(=NC(=O)c2ccco2)c(C#N)cc2c(=O)n3ccccc3cc21,-52.2%
3,Cn1c(SCC(=O)Nc2nccs2)nnc1-c1ccccn1,18%
4,CCS(=O)(=O)N1CCN(c2cccc(C)c2C)CC1,-14.5%
5,COCC(C)n1c(SCc2cc(=O)n3cc(C)ccc3n2)nc2ccccc2c1=O (stereo not drawn),-33.3%
6,C#CCOCCOCCOCCNc1nc(N2CCN(C(=O)C([C@@H](C)CC)n3cc(C(N)CC(C)C)nn3)CC2)nc(N2CCN(C(=O)[C@H](CCC(=O)O)n3cc(C(N)Cc4ccc(O)cc4)nn3)CC2)n1.Cl (stereo partly drawn),1.03%
7,COc1cccc(C2C(C(=O)c3cccs3)=C(O)C(=O)N2CCN(C)C)c1OC (stereo not drawn),-4.22%
8,N#Cc1c(-c2ccco2)nc(NCC2CCCO2)[nH]c1=O (stereo not drawn),7.53%
9,COc1ccc(S(=O)(=O)Nc2ccccc2C(=O)OC2CCCN(C)C2)cc1OC.Cl (stereo not drawn),0.859%
10,Cc1ccc(-c2nnc(Nc3ccc4c(c3)OCO4)c3ccccc23)cc1S(=O)(=O)NC(C)C,-14.1%
11,O=C(CCN1CCOCC1)NC1CCCN(Cc2ccccc2F)C1 (stereo not drawn),9.34%
12,COC(=O)[C@H](C)NC(=O)c1cc2c(cn1)[nH]c1ccccc12,7.14%
13,c1ccc(-n2nnnc2-n2ccnc2)cc1,4.7%
14,O=C(O)C(=O)O.c1ccc(-c2ccccc2OCCOCCN2CCCCC2)cc1,-44.7%
15,CC(=O)N(Cc1cccnc1)c1cccc(-c2nc3ccccc3s2)c1,-51.1%
16,Cc1cc(NC(=O)c2cc(-c3ccc(C)s3)nc3ccccc23)no1,10.7%
17,CC(=O)c1cccc(NC(=O)C2CCN(C(=O)c3ccc([N+](=O)[O-])cc3)CC2)c1,-69.6%
18,Cc1c(C(=O)N2CCCCC2)oc2ccc(Br)cc12,-17.6%
19,COc1ccc(OC)c(Nc2nc(-c3ccncc3)nc3ccccc23)c1,14.6%
20,CCn1nc(C)c(CN2CCCC(CO)(Cc3cccc(Cl)c3)C2)c1C (stereo not drawn),-40.8%
21,Cc1cccc(C(=O)Nc2nsc(N)n2)c1,11.6%

row,Structure (SMILES),"hERG current change (%, negative = inhibition) at 10uM"
1,CCN1CCN(C(=O)CCc2nnc3ccc(N4CCC5(CC4)OCCO5)nn23)CC1,24.2%
2,Cn1ncc([N+](=O)[O-])c1C(=O)N/N=C/c1c[nH]c2ccccc12,19.6%
3,O=C(c1cc2c(s1)CCC2)N1CCN(c2ccccc2)CC1,-2.48%
4,Cc1cccc(-n2c(N)cc(=O)nc2SCC(=O)NC2CCCCC2)c1,-1.47%
5,O=C(NCc1cccc(F)c1)c1noc2c1CCCC2,0.707%
6,CC(c1ccco1)N(C(=O)c1ccccc1NS(=O)(=O)c1ccc(Cl)cc1)c1ccccn1 (stereo not drawn),-21.3%
7,N#C/C(=C/c1ccc(-c2cc(C(=O)O)cc(C(=O)O)c2)o1)c1nc2ccccc2s1,31.7%
8,COC(=O)c1c(O)cc(C(C)(C)C)n(-c2ccc(F)cc2)c1=O,-1.88%
9,Cc1ccc(S(=O)(=O)N2CCN(C(=O)CCC(=O)NCCc3ccc(S(N)(=O)=O)cc3)CC2)c(C)c1,-0.437%
10,COCCn1c(SCC#N)nnc1-c1ccc(OC)cc1,9.39%
11,Cc1ccn(-c2cc(O)c(-n3ccc(C)n3)cc2O)n1,18.9%
12,CCNC(=O)/C(C#N)=C/c1c(N2CCN(c3cccc(Cl)c3)CC2)nc2c(C)cccn2c1=O,6.34%
13,COc1ccc(C(=O)NC(=S)Nc2cccc(NC(=O)c3ccco3)c2)cc1[N+](=O)[O-],-2.5%
14,COc1ccc(NC(=O)CN(C)C(=O)c2sc3ccccc3c2Cl)cc1,-13.6%
15,COc1ccc(-c2cc(C(=O)N/N=C/c3ccc(OC)c(COCC(F)(F)C(F)F)c3)c3ccccc3n2)c(OC)c1,18.8%
16,COc1ccc(CCNC(=S)NC2CCN(Cc3ccccc3)CC2)cc1OC,-39.1%
17,Nc1ncnc2c1ncn2[C@@H]1O[C@H](CO)[C@@H](O)[C@H]1O,9.37%
18,O=C(Nc1ccc2oc(-c3ccccc3F)nc2c1)c1ccc2c(c1)OCCO2,-8.5%
19,COc1ccc(CC2(CO)CCN(Cc3cccn3-c3ccccn3)CC2)cc1,-75.4%
20,Cc1cc(OC(C)C(=O)NCCN2CCOCC2)c2c(C)cc(=O)oc2c1 (stereo not drawn),12.9%
21,Cn1c(=Nc2ccc(N3CCOCC3)cc2)ccc2ccccc21,-47.5%

row,Structure (SMILES),"hERG current change (%, negative = inhibition) at 10uM"
1,N/C(=N\OC(=O)COc1ccccc1Cl)c1ccccn1,28.1%
2,C/C(CC(=O)Nc1ccc2c(c1)OCO2)=N\NC(=O)c1ccccc1N,-0.312%
3,CC(Oc1ccccc1)C(=O)N1CCN(c2ccc(N3CCCCC3)nn2)CC1 (stereo not drawn),-28.5%
4,COCC(=O)NCCc1ccc(S(N)(=O)=O)cc1,19.8%
5,COc1ccc(NC(=O)CCC(=O)N(Cc2ccc(OC)c(OC)c2)c2nccs2)cc1,13.5%
6,CCCC(=O)NC1=C(C#N)C2(CCCC2)Cc2ccccc21,8.35%
7,O=C(Cc1ccccc1)N/N=C/c1cc(Br)cc(Cl)c1O,22.2%
8,CC(=O)N1CCC(C(=O)Nc2ccc(S(=O)(=O)NCCc3ccccc3)cc2)CC1,17.8%
9,CC(NC(=O)/C(C#N)=C/c1ccc(OCC(=O)O)cc1)c1ccccc1 (stereo not drawn),21.5%
10,COc1ccc(COC(=O)Nc2cc3c(C(F)(F)F)nn(C)c3s2)cc1,14.8%
11,CCOc1cc(N2CCOCC2)c(OCC)cc1NC(=O)CN1C(=O)C2CC=CCC2C1=O (stereo not drawn),-8.84%
12,[O-][n+]1onc2c1CCc1c-2nc(-c2ccccc2)n1OCc1ccccc1,3.28%
13,Cc1ccnc(NC(=S)NC(=O)/C=C/c2ccco2)c1,13.5%
14,CC1Nc2ccccc2C(=O)N1NS(=O)(=O)c1ccccc1 (stereo not drawn),-1.58%
15,COc1ccc(C)cc1NC(C)C(=O)NC(=O)NC1CCCCC1 (stereo not drawn),13.2%
16,COc1cc(C(=O)NCC(=O)Nc2c(C)cccc2C)ccc1OCc1ccccc1,-10.9%
17,Cc1csc2c(=O)sc(NC(=O)c3cccs3)nc12,4.98%
18,CCn1c(=O)c([N+](=O)[O-])c(N2CCSCC2)c2ccccc21,-3.07%
19,CCC(=O)c1ccc(OC(=O)c2cnccn2)cc1,23.6%
20,COC(=O)CCC(=O)Nc1ccccc1C(N)=O,23.1%
21,O=C(CSc1nccc(=O)[nH]1)NCc1ccc2c(c1)OCO2,27.3%

# — publication PMC4336329 (PLoS ONE, 2015)
